Test results published in the supplement of paper PMC10126150.
Sequences with one replicate were seen in a single cluster, so their values are uncertain.

system: ATP; assay: switch fluorescence ratio, 500 uM ATP over buffer (Cy3 cluster intensity, sum of 5 cycles each) (fold (ratio)); higher = stronger signal-on switching upon ATP binding; sequences stand for … in TCGTCGGCAGCGTCAGATGTGTATAAGAGACAGTTTTTTTTTTTTTTTTTTTTTTTTT…TC; conditions: aptamer strand: ATP DNA aptamer (quencher-CACCTGGGGGAGTATTGCGGAGGAAGG + anchor), 100 nM annealed; ATP concentration: 500 uM; one replicate
How it was run: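 The fluorescence ratio divides summed target-cycle Cy3 intensity by summed buffer-cycle Cy3 intensity for each cluster and is averaged per switch-domain sequence. Cy3-labelled switching-strand clusters on a modified Illumina MiSeq flow-cell were annealed to 100 nM quencher-labelled ATP aptamer, then imaged in selection buffer and again after 15 min with 500 uM ATP at 22 °C. Five such cycles were run, with NaOH stripping and re-annealing between them, and clusters outside 100-1000 RFU were excluded.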
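Also: ATP exposure 15 min at 22 °C before imaging.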

| Sequence | switch fluorescence ratio |
| --- | --- |
| GGGTCTCGGA | 1.01 |
| GGGTCTCGGC | 1.01 |
| GGGTCTTAGG | 0.926 |
| GGGTGACCTT | 1.04 |
| GGGTGAGGAC | 0.989 |
| GGGTGAGTAT | 1.03 |
| GGGTGATCAT | 0.984 |
| GGGTGCACCG | 1.03 |
| GGGTGCCGCT | 1.04 |
| GGGTGCGACC | 1.01 |
| GGGTGCGAGG | 1.01 |
| GGGTGCTAAC | 1.01 |
| GGGTGGCTG | 0.944 |
| GGGTGGG | 1 |
| GGGTGTAAGC | 0.942 |
| GGGTGTACGT | 1.02 |
| GGGTGTGGCT | 0.964 |
| GGGTTACAGA | 1.03 |
| GGGTTCGAAT | 1.02 |
| GGGTTCGGTC | 1.01 |
| GGGTTGAAGC | 0.959 |
| GGGTTGCAGG | 1.01 |
| GGGTTTATAC | 1.02 |
| GGGTTTCGGT | 0.99 |
| GGGTTTTTAA | 0.983 |

| Sequence | switch fluorescence ratio |
| --- | --- |
| GGTAAAACGC | 1.01 |
| GGTAAAGATG | 0.981 |
| GGTAACCAAA | 1.02 |
| GGTAATCCAC | 1.06 |
| GGTACACTGC | 0.97 |
| GGTACATCTT | 1.02 |
| GGTACCGATC | 1.02 |
| GGTACCGGTT | 1.03 |
| GGTACGATCA | 1.05 |
| GGTACTAGAG | 1.03 |
| GGTACTGATT | 1.04 |
| GGTAGAAGAG | 0.972 |
| GGTAGAAGGT | 0.949 |
| GGTAGACGCG | 0.955 |
| GGTAGATTAT | 0.961 |
| GGTAGCCAAT | 0.988 |
| GGTAGGCAGA | 1.03 |
| GGTAGGCG | 1.03 |
| GGTAGGGCAC | 1.05 |
| GGTAGGGCAG | 1.03 |
| GGTAGTCTAT | 0.967 |
| GGTATACG | 0.959 |
| GGTATACGAA | 1 |
| GGTATAGTGA | 0.99 |
| GGTATAGTGG | 0.931 |

| Sequence | switch fluorescence ratio |
| --- | --- |
| GGTATATACC | 1.07 |
| GGTATATCAG | 0.978 |
| GGTATCATGG | 0.998 |
| GGTATGTACT | 1.02 |
| GGTATGTGGC | 0.938 |
| GGTCAAGAGA | 1 |
| GGTCAAGGT | 0.989 |
| GGTCACAAGC | 0.981 |
| GGTCACCTAT | 0.962 |
| GGTCACGGAT | 0.903 |
| GGTCAGCACT | 1.03 |
| GGTCATGAGT | 0.999 |
| GGTCCAAGCG | 0.992 |
| GGTCCAATCC | 1.01 |
| GGTCCATCCA | 1.01 |
| GGTCCCCATT | 0.98 |
| GGTCCCGGGT | 1.04 |
| GGTCCGCTCT | 1.02 |
| GGTCGAAAAG | 1.02 |
| GGTCGACGTT | 1 |
| GGTCGAGTGA | 0.989 |
| GGTCGCATCA | 0.953 |
| GGTCGGTCGG | 1.04 |
| GGTGAAAAGG | 0.956 |
| GGTGAAACT | 0.99 |

| Sequence | switch fluorescence ratio |
| --- | --- |
| GGTGAACGAT | 1.01 |
| GGTGAAGCGC | 0.992 |
| GGTGAAGTGG | 0.953 |
| GGTGAGAACT | 1.01 |
| GGTGAGAGGC | 1.05 |
| GGTGAGCCGT | 0.866 |
| GGTGAGGCGG | 0.968 |
| GGTGAGTCAA | 0.995 |
| GGTGAGTCCA | 1.02 |
| GGTGATCACA | 0.972 |
| GGTGATCGGA | 0.941 |
| GGTGCAGGC | 0.72 |
| GGTGCATAGG | 1.02 |
| GGTGCCATTC | 0.978 |
| GGTGCGAGGG | 1.11 |
| GGTGCTTTAT | 1.04 |
| GGTGGATTA | 0.978 |
| GGTGGGGTCT | 0.983 |
| GGTGGTCTAC | 1.02 |
| GGTGTACCTG | 0.996 |
| GGTGTCTAG | 1.04 |
| GGTGTCTCGG | 0.988 |
| GGTGTGGGCC | 0.975 |
| GGTGTTAAA | 0.955 |
| GGTGTTATTT | 0.991 |
